Results on 110 molecules are retold here after PubChem BioAssay AID1240 (Sanford-Burnham Center for Chemical Genomics, 2008).

Out of some 50,000 compounds screened, about 800 (1.6%) showed an effect of 50% or more. Some of the results follow.

For this assay, the target named is Bcl-2-like protein 10 (Homo sapiens) (UniProt Q9HD36). Nature of the assay: TR3 peptide-Bcl-B binding displacers, biochemical primary FP assay, phenotype converters (AID 1240).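 Further: 0% = Bcl-B with tracer peptide and DMSO and 100% = tracer peptide lacking Bcl-B.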 The settings on record: GST-Bcl-B / FITC-TR3 peptide fluorescence polarization; stronger effect = higher value; compound at 3.75 mg/L. Background: Polarisation of emitted light reports the rotation of a fluorescent probe.
Chain of UniProt Q9HD36 (Q9HD36 whole entry, looked up): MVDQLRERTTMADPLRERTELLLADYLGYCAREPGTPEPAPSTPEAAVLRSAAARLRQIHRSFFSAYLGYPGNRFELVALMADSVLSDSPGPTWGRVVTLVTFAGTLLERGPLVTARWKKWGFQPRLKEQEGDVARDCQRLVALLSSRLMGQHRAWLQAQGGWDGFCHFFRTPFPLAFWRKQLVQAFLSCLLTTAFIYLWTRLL
Take `Cc1ccc(N(CC(=O)N=Nc2c(O)[nH]c3ccccc23)S(=O)(=O)c2ccccc2)cc1`: the displacement was found to be 13.9%.

In the case of `CCOC(=O)c1c(NC(=O)COc2ccccc2C)sc(C(=O)N2CCCCC2)c1C`, the displacement is -2.3%.

Consider `O=C(O)c1cc(NS(=O)(=O)c2ccccc2)cc(C(=O)O)c1`, for which the displacement stood at 3.9%.

Consider `Cc1cccc(NC(=O)c2c(NC(=O)c3ccc([N+](=O)[O-])cc3)sc3c2CCCC3)c1`, for which the displacement was found to be 3.7%.

In the case of `Cc1ccccc1OCC(=O)Nc1ccc(-c2ccccc2)cc1`, the displacement is 13.2%.

Regarding `Cc1ccc(S(=O)(=O)N/N=C/c2ccc([N+](=O)[O-])cc2)cc1`, the displacement was 0.3%.

For the molecule `Cc1ccccc1C(=O)NN1C(=O)/C(=C\c2cccnc2)SC1=S`, the displacement worked out at 15.3%.

Regarding `COc1ccc2oc(C)c(C(C)=O)c2c1`, the displacement turned out to be 13%.

As for `COc1ccc(S(=O)(=O)N(CCc2ccccc2)CC(=O)Nc2ccc(C)c(C)c2)cc1`, the displacement is -23.7%.

With `Cc1ccc(N2CCN(C(=S)Nc3ccccc3)CC2)cc1`, the displacement amounted to 2.6%.

On to `CCOC(=O)C1CCN(C2CC(=O)N(c3cccc(Br)c3)C2=O)CC1` (stereo not given), for which the displacement worked out at 11.3%.

For the molecule `CCN(CC)S(=O)(=O)c1cc(C(=O)c2ccc(Br)cc2)ccc1C`, the displacement is -9%.

As for `O=C(OC1CCCCC1)c1ccc(NS(=O)(=O)c2ccc([N+](=O)[O-])cc2)cc1`, the displacement amounted to 0.7%.

Consider `Cn1c(/C=C/c2cn(C)c3ccccc23)nc2ccccc2c1=O`, for which the displacement was 40.9%.

`CCOC(=O)CC(NC(=O)c1nc[nH]c1[N+](=O)[O-])C(=O)OCC` (stereo not given): the displacement was -0.7%.

In the case of `O=C1CSC(=S)N1/N=C/c1ccccc1OS(=O)(=O)c1ccccc1`, the displacement was 12.7%.

`CC(=O)Nc1cc(-c2ccc(F)cc2)[nH]n1`: the displacement was 14.7%.

As to `CC(C)Oc1ccc(CN(C)C)cc1CN(C)C`, the displacement stood at 2.1%.

Consider `Cc1ccc(NC(=O)C2CC(=O)N(c3ccc(F)cc3)C2)c(C)c1` (stereo not given), for which the displacement was -11%.

Regarding `COc1ccc(C(=O)N(c2ccccc2)C2CC(C)Nc3ccccc32)cc1` (stereo not given), the displacement stood at 14.5%.

Regarding `O=C(COC(=O)c1cccc(S(=O)(=O)N2CCOCC2)c1)c1ccccc1`, the displacement is -8.5%.

Consider `CCCN(CCC)C(=O)CC12CC3CC(C1)CC(CC(=O)N(CCC)CCC)(C3)C2`, for which the displacement came out at 10.5%.

Regarding `Cc1ccc(C(C)C)c(OCC(=O)Nc2ccc(Cl)c(NC(=O)c3ccco3)c2)c1`, the displacement was 17.2%.

Take `COC(=O)C1=C(C)N(c2ccc(Cl)cc2)C(=O)/C1=C\c1ccccc1O`: the displacement is -10.3%.

In the case of `N/C(Cc1cccc2ccccc12)=N\OC(=O)c1cccs1`, the displacement was found to be 98.4%.

With `NNS(=O)(=O)c1ccc2c(c1)Cc1cc(S(=O)(=O)NN)ccc1-2`, the displacement came to 15.4%.

`Cc1cccc(C(C)C)c1NC(=O)c1cccc(Br)c1`: the displacement came to 0.6%.

In the case of `CCN(CC)CCCCCCOc1ccccc1C(C)(C)C`, the displacement was 13.1%.

With `COc1ccccc1CNC(=O)C(=O)NCC1CCCO1` (stereo not given), the displacement came out at 2.8%.

For `COc1cc(NC(=O)c2ccc(-c3ccc(Cl)cc3)o2)ccc1NC(=O)c1ccco1`, the displacement is -6.5%.

`COc1ccc(C2=C/C(=C\c3ccccc3[N+](=O)[O-])C(=O)O2)cc1`: the displacement is -1.5%.

In the case of `Clc1ccccc1OCCCN1CCOCC1`, the displacement is 6.3%.

Consider `COc1cc([N+](=O)[O-])ccc1NC(=S)NC(=O)c1ccc(Cl)cc1`, for which the displacement is -5.8%.

For `COC(=O)CN(c1ccc(F)cc1)S(C)(=O)=O`, the displacement turned out to be 6.4%.

As to `Cc1ccc2nc(NC(=O)c3ccccc3Br)sc2c1`, the displacement amounted to 4.5%.

For `O=C1OC(Oc2ccc(Cl)cc2Cl)(c2ccccc2)c2ccccc21` (stereo not given), the displacement came out at 5.8%.

Regarding `Cc1ccc(/C=N/N2CCN(Cc3ccc(Cl)cc3)CC2)s1`, the displacement was -3.8%.

In the case of `CCOC(=O)N/N=C(\C)C12CC3CC(CC(C3)C1)C2`, the displacement is 1.6%.

As to `CCOC(=O)COc1ccc(/C=C(/C#N)C(=O)Nc2cccc(Br)c2)cc1`, the displacement was -8.9%.

Regarding `CN(C)CCN1C(=O)C(=O)/C(=C(/O)c2ccccc2)C1c1cccc(F)c1` (stereo not given), the displacement was 5.5%.

Turning to `COc1ccccc1N1C(=O)S/C(=C\c2cccc(Br)c2)C1=O`, the displacement was 12.8%.

Consider `Cc1ccc(C)c(C(=O)c2ccccc2NC(=O)c2ccccn2)c1`, for which the displacement is -2.8%.

Regarding `COCCOC(=O)C1=C(C)NC(=O)NC1c1ccc(N(C)C)cc1` (stereo not given), the displacement was 2.6%.

As for `Cc1nc2c(-c3ccccc3)cnn2c(C(C)(C)C)c1C`, the displacement is -0.1%.

Consider `CCc1ccccc1NC(=O)CN(c1ccc(C)c(Cl)c1)S(C)(=O)=O`, for which the displacement was found to be 5.6%.

With `COc1ccc(N(CC(=O)Nc2c(C)cccc2C)S(=O)(=O)c2ccccc2)cc1Cl`, the displacement turned out to be 5.9%.

In the case of `O=C(O)c1cnn2c1NC(c1ccc(Br)cc1)CC2C(F)(F)F` (stereo not given), the displacement came out at 4.8%.

As to `CC(=O)c1ccc(NC(=O)c2sc3ccccc3c2Cl)cc1`, the displacement stood at 12.2%.

With `COc1cccc(N2C(=O)C(=Cc3ccc(OC)cc3OC)C(=O)NC2=S)c1`, the displacement is 8.5%.

Consider `COc1ccc(N2C(=O)CC(Sc3nnc(-c4ccccc4)n3-c3ccccc3)C2=O)cc1` (stereo not given), for which the displacement was 4.5%.

Turning to `Cc1cc(/C=C2\C(=O)NC(=O)N(C)C2=O)c(C)n1-c1ccc(N(C)C)cc1`, the displacement was 124%.

On to `Cc1ccc(N2CCN(C(=O)Nc3ccc(Cl)cc3)CC2)cc1`, for which the displacement was found to be 12.3%.

For the molecule `O=C(Nc1ccccc1)C1C2C3CCC(C3)C12` (stereo not given), the displacement was 4%.

As to `O=C(Nc1cccc(S(=O)(=O)c2cccc(NC(=O)C(F)(F)F)c2)c1)C(F)(F)F`, the displacement is 0.8%.

With `Cc1ccc(NC(=O)CCCOc2ccccc2)c(Br)c1`, the displacement was determined as 9.5%.

`O=C(CSCc1ccccc1)Nc1cccc2c1C(=O)N(c1ccccc1)C2=O`: the displacement is -3.4%.

Regarding `OCCCn1c(-c2ccccc2)cn2c3ccccc3nc12`, the displacement was determined as 5.1%.

Turning to `CCCOc1ccc(/C=C2\C(=O)N(c3ccc(S(N)(=O)=O)cc3)N=C2C)cc1OC`, the displacement was -2.3%.

For the molecule `CC1CCC(CCOC(=O)C(C)(C)C)C1(C)C` (stereo not given), the displacement was -3%.

Turning to `CCc1ccc(CN2CCN(S(=O)(=O)c3ccc(Cl)cc3)CC2)cc1`, the displacement turned out to be 4.7%.

As for `O=C(Nc1nc2ccc3ccccc3c2s1)c1ccc(C(=O)c2ccccc2)cc1`, the displacement was -3.8%.

Turning to `O=C1OC(/C=C/c2ccccc2)=NC/1=C/c1cccc([N+](=O)[O-])c1`, the displacement amounted to 98.4%.

With `CCN(CC)CCNC(=O)COc1ccccc1O`, the displacement stood at 3.6%.

For the molecule `O=C1N=c2ccc([N+](=O)[O-])cc2=C1c1sc(=Nc2ccccc2)n(-c2ccccc2)c1O`, the displacement turned out to be 0.4%.

`Cc1cc(C)cc(NC(=O)C2CC3CCC2C3)c1` (stereo not given): the displacement was -8.4%.

Regarding `CC(C)C12CN3CC(C(C)C)(CN(C1)C3c1c[nH]c3ccccc13)C2=O` (stereo not given), the displacement was 7%.

`O=C1NC2(CCCCC2)Cc2ccccc21`: the displacement was 7.4%.

With `Clc1cccc(Cl)c1OCCN1CCOCC1`, the displacement came out at 2.6%.

Take `Cc1ccc(C(=O)N/C(=C/c2cccc([N+](=O)[O-])c2)C(=O)Nc2c(C)n(C)n(-c3ccccc3)c2=O)cc1`: the displacement is -2.1%.

For `O=C1CCCC2=C1C(c1cccnc1)Nc1ccc(C(=O)c3ccccc3)cc1N2` (stereo not given), the displacement is -10.3%.

`COc1cc([N+](=O)[O-])ccc1NC(=O)COc1ccc(Cl)cc1C`: the displacement was 7.5%.

Turning to `O=C(Cn1c(C(=O)c2ccccc2)nc2ccccc21)c1ccccc1`, the displacement worked out at 5.1%.

In the case of `O=c1cnnc(N/N=C/c2ccccc2[N+](=O)[O-])[nH]1`, the displacement was 8.4%.

For the molecule `Cc1ccc(C(=O)CCNc2cccc(Br)c2)o1`, the displacement was found to be 10.6%.

`Cc1ccccc1OCC(=O)O/N=C(\N)Cc1ccc(Cl)cc1`: the displacement was -0.6%.

As for `CCOc1cccc(-c2nc3cc(C)ccc3o2)c1`, the displacement stood at 1.9%.

With `CC(CNC(=O)COc1cccc2ccccc12)CN(C)C` (stereo not given), the displacement was -6%.

In the case of `O=C1NC(=O)/C(=C/c2c(F)cccc2Cl)S1`, the displacement was -0.3%.

For the molecule `FC(F)(F)c1ccccc1NC(=S)Nc1ccccc1`, the displacement is -1.7%.

As to `Cn1c(=O)c2c(ncn2CC(=O)NC(c2ccccc2)c2ccccc2)n(C)c1=O`, the displacement was determined as 4.5%.

For the molecule `C=CCN1C(=O)/C(=C\c2cc(Cl)c(O)c(OCC)c2)C(=O)NC1=S`, the displacement is -12.7%.

For the molecule `C=CCn1c(SCC(=O)c2cccs2)nc2sc3c(c2c1=O)CCCC3`, the displacement came out at 8.4%.

Regarding `COC(=O)c1ccc(/C=C2\SC(=Nc3ccc(F)cc3)NC2=O)cc1`, the displacement was 30.8%.

Take `Fc1ccc(NC(=S)N2CCN(Cc3ccc4c(c3)OCO4)CC2)cc1`: the displacement was -4.5%.

For `Cc1ccc(-c2nnc(-c3ccco3)o2)cc1`, the displacement was -1%.

As to `Cc1cc2ncn(C(=O)c3ccc(-c4ccccc4)cc3)c2cc1C`, the displacement was determined as 10.5%.

For the molecule `CC(C)(C)OC(=O)NNC(=O)c1cccc(Cl)c1`, the displacement was -9.4%.

Consider `COc1ccc(C2/C(=C(/O)c3ccc(C)cc3)C(=O)C(=O)N2CCCCCC(=O)O)cc1` (stereo not given), for which the displacement was -63.8%.

As to `CCc1ccc2oc(-c3ccc(C)c(NS(=O)(=O)c4ccccc4)c3)nc2c1`, the displacement is -4.7%.

As to `CC1=NN(c2ccc(S(N)(=O)=O)cc2)C(=O)/C1=C\c1cccc([N+](=O)[O-])c1`, the displacement was -0.4%.

As to `Cc1ccccc1N1C(=O)c2ccc(-c3nc4ccccc4c(=O)o3)cc2C1=O`, the displacement was -4.9%.

Consider `Cn1ccnc1SCc1ccc(C(=O)O)cc1`, for which the displacement was -6.7%.

For the molecule `Cc1cc(Cl)ccc1NC(=O)c1ccc(Cl)cc1`, the displacement was -5.1%.

For `CN(C)CCCNC(=O)c1ccc2sc3cc(=O)c(N)cc-3nc2c1`, the displacement was found to be 44.6%.

Consider `Cc1ccc(C)c(NCc2ccncc2)c1`, for which the displacement turned out to be 0.2%.

In the case of `CCCN1CCC(=NNC(=O)c2ccccc2C)CC1`, the displacement came to 3%.

With `O=C1CCCCCC1C1(O)C(=O)Nc2ccccc21` (stereo not given), the displacement was determined as 9.5%.

As to `CCc1ccc(NC(=O)CN(c2ccc(Br)cc2)S(=O)(=O)c2ccccc2)cc1`, the displacement was -7.5%.

Turning to `CC1(C)CC(=O)C2=C(C1)Nc1ccccc1NC2c1ccc(-c2ccccc2)cc1` (stereo not given), the displacement was found to be 0%.

Take `O=C1CC(c2cccc(Br)c2)c2cc(Br)c3ccccc3c2N1` (stereo not given): the displacement came to 11%.

Regarding `CCOc1ccc(N(CC(=O)N[C@@H]2CCCC[C@H]2O)S(C)(=O)=O)cc1`, the displacement was 7.3%.

Regarding `Cc1ccc(-c2cc(C(=O)Nc3c(C)cccc3C)c3ccccc3n2)s1`, the displacement stood at 4.2%.

Regarding `CC(C)(C)c1ccc(S(=O)(=O)Nc2cc(C(N)=O)c(Cl)cc2Cl)cc1`, the displacement was 0.5%.

In the case of `CC(C)OP(=O)(OC(C)C)C(Nc1cccc([N+](=O)[O-])c1)c1cccc([N+](=O)[O-])c1` (stereo not given), the displacement is -17.9%.

As to `CCCCOP(=O)(CC(=O)OC)CC(=O)OC`, the displacement was found to be 17.9%.

In the case of `Cc1cc(/C=C2/SC(=S)NC2=O)c(C)n1-c1cccc(Cl)c1`, the displacement is -51.8%.

Regarding `COc1ccc(Oc2ccc(-n3c(C)cc(C=O)c3C)cc2)cc1`, the displacement is 0.4%.

In the case of `CC(C)Oc1ccc(-c2cc(C(=O)O)c3ccccc3n2)cc1`, the displacement is -1.7%.

Turning to `CCCCn1c(CN2C(=O)c3ccccc3C2=O)nc2ccccc2c1=O`, the displacement came out at 10%.

In the case of `O=C(CN1C(=O)/C(=C/c2ccccc2)SC1=S)NNC(=O)c1ccncc1`, the displacement is -3%.
